# Test results taken from PMC12820563, “FoxP3 forms a head-to-head dimer in vivo and stabilizes its multimerization on adjacent microsatellites”.
# Some of the results follow.
# Target: T1, MBP-FoxP1dN (Mus musculus, UniProt P58462 326-579)
# T1 sequence: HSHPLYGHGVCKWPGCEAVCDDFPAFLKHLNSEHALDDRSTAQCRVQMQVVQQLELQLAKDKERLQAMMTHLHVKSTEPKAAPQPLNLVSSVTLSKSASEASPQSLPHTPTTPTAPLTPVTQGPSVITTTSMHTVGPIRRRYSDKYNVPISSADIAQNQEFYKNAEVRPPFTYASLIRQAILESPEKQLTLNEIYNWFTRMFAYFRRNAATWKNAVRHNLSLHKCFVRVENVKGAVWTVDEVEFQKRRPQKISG
# Assay: PD-seq (MBP pull-down with sequencing); 20 mM Tris-HCl pH 7.5, 100 mM NaCl, 1.5 mM MgCl2, 0.4 uM protein, 0.1 uM dsDNA library, 30 min, room temperature, amylose pull-down; high values mean tight binding
# Settings: protein: recombinant; tags: His6-MBP; chain copies: 2; dsDNA, one strand shown
# Summary of the method: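 A degenerate double-stranded DNA library, filled in with Klenow, was added at 0.1 µM to 0.4 µM His6-MBP-tagged mouse FoxP3 or FoxP1 fragment lacking the N-terminus, expressed in E. coli. Incubation lasted 30 min at room temperature in Tris pH 7.5 buffer with NaCl and MgCl2, after which complexes were collected on amylose resin, washed three times, digested with proteinase K to free the DNA, barcoded by PCR and sequenced by Illumina. Binding is the pooled-replicate reads-per-million enrichment of pull-down over input.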
row,Sequence,binding signal
1,GATGATTGTTCTCCCAGCTGATGAATTCGTTTGGTCGAGTAAACAAATTTTCCTAATCTTTCTGTTCAAGCGCCATCTAC,0.844 RPM ratio (pull-down/input)
2,GATGATTGTTCTCCCAGCTGATGAATTAGCTATCTCGAGTAAACAAATTTTCCTAATCTTTCTGTTCAAGCGCCATCTAC,0.958 RPM ratio (pull-down/input)
3,GATGATTGTTCTCCCAGCTGATGAATTTTATATATCGAGTAAACAAATTTTCCTAATCTTTCTGTTCAAGCGCCATCTAC,1.11 RPM ratio (pull-down/input)
4,GATGATTGTTCTCCCAGCTGATGAATTCGTTCCGTCGAGTAAACAAATTTTCCTAATCTTTCTGTTCAAGCGCCATCTAC,0.906 RPM ratio (pull-down/input)
5,GATGATTGTTCTCCCAGCTGATGAATTAGTGCCTTCGAGTAAACAAATTTTCCTAATCTTTCTGTTCAAGCGCCATCTAC,0.947 RPM ratio (pull-down/input)
6,GATGATTGTTCTCCCAGCTGATGAATTTACTTATTCGAGTAAACAAATTTTCCTAATCTTTCTGTTCAAGCGCCATCTAC,1.53 RPM ratio (pull-down/input)
7,GATGATTGTTCTCCCAGCTGATGAATTTCAACCATCGAGTAAACAAATTTTCCTAATCTTTCTGTTCAAGCGCCATCTAC,0.972 RPM ratio (pull-down/input)
8,GATGATTGTTCTCCCAGCTGATGAATTGGGACCCTCGAGTAAACAAATTTTCCTAATCTTTCTGTTCAAGCGCCATCTAC,0.788 RPM ratio (pull-down/input)
9,GATGATTGTTCTCCCAGCTGATGAATTGACAGAGTCGAGTAAACAAATTTTCCTAATCTTTCTGTTCAAGCGCCATCTAC,1.07 RPM ratio (pull-down/input)
10,GATGATTGTTCTCCCAGCTGATGAATTTGTTATGTCGAGTAAACAAATTTTCCTAATCTTTCTGTTCAAGCGCCATCTAC,1.55 RPM ratio (pull-down/input)
11,GATGATTGTTCTCCCAGCTGATGAATTCAAGGGGTCGAGTAAACAAATTTTCCTAATCTTTCTGTTCAAGCGCCATCTAC,0.781 RPM ratio (pull-down/input)
12,GATGATTGTTCTCCCAGCTGATGAATTCCGTTCGTCGAGTAAACAAATTTTCCTAATCTTTCTGTTCAAGCGCCATCTAC,0.83 RPM ratio (pull-down/input)
13,GATGATTGTTCTCCCAGCTGATGAATTACTAGACTCGAGTAAACAAATTTTCCTAATCTTTCTGTTCAAGCGCCATCTAC,0.985 RPM ratio (pull-down/input)
14,GATGATTGTTCTCCCAGCTGATGAATTTCTTCGATCGAGTAAACAAATTTTCCTAATCTTTCTGTTCAAGCGCCATCTAC,0.922 RPM ratio (pull-down/input)
15,GATGATTGTTCTCCCAGCTGATGAATTACAAGTATCGAGTAAACAAATTTTCCTAATCTTTCTGTTCAAGCGCCATCTAC,1.44 RPM ratio (pull-down/input)
16,GATGATTGTTCTCCCAGCTGATGAATTGGTCTACTCGAGTAAACAAATTTTCCTAATCTTTCTGTTCAAGCGCCATCTAC,0.873 RPM ratio (pull-down/input)
17,GATGATTGTTCTCCCAGCTGATGAATTAACTCTGTCGAGTAAACAAATTTTCCTAATCTTTCTGTTCAAGCGCCATCTAC,0.877 RPM ratio (pull-down/input)
18,GATGATTGTTCTCCCAGCTGATGAATTCGCTGGTTCGAGTAAACAAATTTTCCTAATCTTTCTGTTCAAGCGCCATCTAC,0.846 RPM ratio (pull-down/input)
19,GATGATTGTTCTCCCAGCTGATGAATTGTTCGCTTCGAGTAAACAAATTTTCCTAATCTTTCTGTTCAAGCGCCATCTAC,1.05 RPM ratio (pull-down/input)
20,GATGATTGTTCTCCCAGCTGATGAATTCCGAGCATCGAGTAAACAAATTTTCCTAATCTTTCTGTTCAAGCGCCATCTAC,0.952 RPM ratio (pull-down/input)
21,GATGATTGTTCTCCCAGCTGATGAATTGACGCATTCGAGTAAACAAATTTTCCTAATCTTTCTGTTCAAGCGCCATCTAC,1.39 RPM ratio (pull-down/input)

row,Sequence,binding signal
1,GATGATTGTTCTCCCAGCTGATGAATTAGCCACCTCGAGTAAACAAATTTTCCTAATCTTTCTGTTCAAGCGCCATCTAC,0.812 RPM ratio (pull-down/input)
2,GATGATTGTTCTCCCAGCTGATGAATTAAGTCATTCGAGTAAACAAATTTTCCTAATCTTTCTGTTCAAGCGCCATCTAC,0.996 RPM ratio (pull-down/input)
3,GATGATTGTTCTCCCAGCTGATGAATTGCCAGGATCGAGTAAACAAATTTTCCTAATCTTTCTGTTCAAGCGCCATCTAC,0.831 RPM ratio (pull-down/input)
4,GATGATTGTTCTCCCAGCTGATGAATTCGCGCAATCGAGTAAACAAATTTTCCTAATCTTTCTGTTCAAGCGCCATCTAC,1.13 RPM ratio (pull-down/input)
5,GATGATTGTTCTCCCAGCTGATGAATTTACTTAATCGAGTAAACAAATTTTCCTAATCTTTCTGTTCAAGCGCCATCTAC,1.48 RPM ratio (pull-down/input)
6,GATGATTGTTCTCCCAGCTGATGAATTGTGGTACTCGAGTAAACAAATTTTCCTAATCTTTCTGTTCAAGCGCCATCTAC,1.09 RPM ratio (pull-down/input)
7,GATGATTGTTCTCCCAGCTGATGAATTGCCCGAATCGAGTAAACAAATTTTCCTAATCTTTCTGTTCAAGCGCCATCTAC,0.939 RPM ratio (pull-down/input)
8,GATGATTGTTCTCCCAGCTGATGAATTACCATACTCGAGTAAACAAATTTTCCTAATCTTTCTGTTCAAGCGCCATCTAC,0.954 RPM ratio (pull-down/input)
9,GATGATTGTTCTCCCAGCTGATGAATTCGAGACGTCGAGTAAACAAATTTTCCTAATCTTTCTGTTCAAGCGCCATCTAC,0.78 RPM ratio (pull-down/input)
10,GATGATTGTTCTCCCAGCTGATGAATTATGGTATTCGAGTAAACAAATTTTCCTAATCTTTCTGTTCAAGCGCCATCTAC,1.1 RPM ratio (pull-down/input)
11,GATGATTGTTCTCCCAGCTGATGAATTGAGTGAATCGAGTAAACAAATTTTCCTAATCTTTCTGTTCAAGCGCCATCTAC,0.904 RPM ratio (pull-down/input)
12,GATGATTGTTCTCCCAGCTGATGAATTTGTCACTTCGAGTAAACAAATTTTCCTAATCTTTCTGTTCAAGCGCCATCTAC,1.14 RPM ratio (pull-down/input)
13,GATGATTGTTCTCCCAGCTGATGAATTCCTGGTGTCGAGTAAACAAATTTTCCTAATCTTTCTGTTCAAGCGCCATCTAC,0.832 RPM ratio (pull-down/input)
14,GATGATTGTTCTCCCAGCTGATGAATTAACGCTGTCGAGTAAACAAATTTTCCTAATCTTTCTGTTCAAGCGCCATCTAC,0.97 RPM ratio (pull-down/input)
15,GATGATTGTTCTCCCAGCTGATGAATTGACGAAGTCGAGTAAACAAATTTTCCTAATCTTTCTGTTCAAGCGCCATCTAC,0.97 RPM ratio (pull-down/input)
16,GATGATTGTTCTCCCAGCTGATGAATTCCCCGCCTCGAGTAAACAAATTTTCCTAATCTTTCTGTTCAAGCGCCATCTAC,0.856 RPM ratio (pull-down/input)
17,GATGATTGTTCTCCCAGCTGATGAATTCTTTAAGTCGAGTAAACAAATTTTCCTAATCTTTCTGTTCAAGCGCCATCTAC,0.837 RPM ratio (pull-down/input)
18,GATGATTGTTCTCCCAGCTGATGAATTTAACGCTTCGAGTAAACAAATTTTCCTAATCTTTCTGTTCAAGCGCCATCTAC,0.91 RPM ratio (pull-down/input)
19,GATGATTGTTCTCCCAGCTGATGAATTCCAGTAGTCGAGTAAACAAATTTTCCTAATCTTTCTGTTCAAGCGCCATCTAC,0.79 RPM ratio (pull-down/input)
20,GATGATTGTTCTCCCAGCTGATGAATTTATGCAGTCGAGTAAACAAATTTTCCTAATCTTTCTGTTCAAGCGCCATCTAC,1.11 RPM ratio (pull-down/input)
21,GATGATTGTTCTCCCAGCTGATGAATTTCAACCTTCGAGTAAACAAATTTTCCTAATCTTTCTGTTCAAGCGCCATCTAC,0.82 RPM ratio (pull-down/input)

row,Sequence,binding signal
1,GATGATTGTTCTCCCAGCTGATGAATTGTTCGTGTCGAGTAAACAAATTTTCCTAATCTTTCTGTTCAAGCGCCATCTAC,1.07 RPM ratio (pull-down/input)
2,GATGATTGTTCTCCCAGCTGATGAATTGGTATGTTCGAGTAAACAAATTTTCCTAATCTTTCTGTTCAAGCGCCATCTAC,1.27 RPM ratio (pull-down/input)
3,GATGATTGTTCTCCCAGCTGATGAATTGAACCCCTCGAGTAAACAAATTTTCCTAATCTTTCTGTTCAAGCGCCATCTAC,0.779 RPM ratio (pull-down/input)
4,GATGATTGTTCTCCCAGCTGATGAATTTCACGAATCGAGTAAACAAATTTTCCTAATCTTTCTGTTCAAGCGCCATCTAC,0.931 RPM ratio (pull-down/input)
5,GATGATTGTTCTCCCAGCTGATGAATTTTTAGTGTCGAGTAAACAAATTTTCCTAATCTTTCTGTTCAAGCGCCATCTAC,1.14 RPM ratio (pull-down/input)
6,GATGATTGTTCTCCCAGCTGATGAATTATTCGCGTCGAGTAAACAAATTTTCCTAATCTTTCTGTTCAAGCGCCATCTAC,1.05 RPM ratio (pull-down/input)
7,GATGATTGTTCTCCCAGCTGATGAATTGGACACATCGAGTAAACAAATTTTCCTAATCTTTCTGTTCAAGCGCCATCTAC,1.03 RPM ratio (pull-down/input)
8,GATGATTGTTCTCCCAGCTGATGAATTAGAAACATCGAGTAAACAAATTTTCCTAATCTTTCTGTTCAAGCGCCATCTAC,1.26 RPM ratio (pull-down/input)
9,GATGATTGTTCTCCCAGCTGATGAATTAGCGGTCTCGAGTAAACAAATTTTCCTAATCTTTCTGTTCAAGCGCCATCTAC,0.852 RPM ratio (pull-down/input)
10,GATGATTGTTCTCCCAGCTGATGAATTCATGGCTTCGAGTAAACAAATTTTCCTAATCTTTCTGTTCAAGCGCCATCTAC,0.829 RPM ratio (pull-down/input)
11,GATGATTGTTCTCCCAGCTGATGAATTCCGTTAATCGAGTAAACAAATTTTCCTAATCTTTCTGTTCAAGCGCCATCTAC,0.898 RPM ratio (pull-down/input)
12,GATGATTGTTCTCCCAGCTGATGAATTAGGTTAATCGAGTAAACAAATTTTCCTAATCTTTCTGTTCAAGCGCCATCTAC,0.976 RPM ratio (pull-down/input)
13,GATGATTGTTCTCCCAGCTGATGAATTGGCACTATCGAGTAAACAAATTTTCCTAATCTTTCTGTTCAAGCGCCATCTAC,0.929 RPM ratio (pull-down/input)
14,GATGATTGTTCTCCCAGCTGATGAATTCCGGCCATCGAGTAAACAAATTTTCCTAATCTTTCTGTTCAAGCGCCATCTAC,0.801 RPM ratio (pull-down/input)
15,GATGATTGTTCTCCCAGCTGATGAATTTTTCATGTCGAGTAAACAAATTTTCCTAATCTTTCTGTTCAAGCGCCATCTAC,0.926 RPM ratio (pull-down/input)
16,GATGATTGTTCTCCCAGCTGATGAATTTCATACGTCGAGTAAACAAATTTTCCTAATCTTTCTGTTCAAGCGCCATCTAC,0.937 RPM ratio (pull-down/input)
17,GATGATTGTTCTCCCAGCTGATGAATTTCCGGTCTCGAGTAAACAAATTTTCCTAATCTTTCTGTTCAAGCGCCATCTAC,0.754 RPM ratio (pull-down/input)
18,GATGATTGTTCTCCCAGCTGATGAATTCGTCATGTCGAGTAAACAAATTTTCCTAATCTTTCTGTTCAAGCGCCATCTAC,0.903 RPM ratio (pull-down/input)
19,GATGATTGTTCTCCCAGCTGATGAATTCTGTGCGTCGAGTAAACAAATTTTCCTAATCTTTCTGTTCAAGCGCCATCTAC,0.934 RPM ratio (pull-down/input)
20,GATGATTGTTCTCCCAGCTGATGAATTCGTAACCTCGAGTAAACAAATTTTCCTAATCTTTCTGTTCAAGCGCCATCTAC,0.882 RPM ratio (pull-down/input)
21,GATGATTGTTCTCCCAGCTGATGAATTGTACTTGTCGAGTAAACAAATTTTCCTAATCTTTCTGTTCAAGCGCCATCTAC,1.06 RPM ratio (pull-down/input)
